Assay results published in PubChem BioAssay AID1508624 (National Center for Advancing Translational Sciences (NCATS), 2021).
Among all 48,000 compounds or so, about 120 (0.25%) were called active. Not shown: some 4% with an inconclusive outcome. The call rests on the fitted dose curve; in most records, active means well fitted activation curve with a large enough effect; inconclusive means small, poorly fitted or top-dose-only effect, or another doubt; inactive means no such curve, though single readings can be large or run the other way. The list shows a part of the results.

assay: Primary qHTS for Identification of Small Molecule Activators of Huntingtin-Antisense Promoter Activity; conditions: HEK293 HTT-AS promoter firefly luciferase reporter (activity 0% = vehicle and -100% = no light), 24 h; series mostly up to 57.5 µM; activity change, positive = activation: at the top concentration; further: nearly all actives have a fitted effect of over 55% in size
In short: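 Luminescence was read after Dual-Glo reagent and a 10 min room-temperature incubation. Values were normalized to vehicle (0% activity) and zero RLU (-100% activity). Reporter HEK293 cells had been exposed to compounds (up to 57.5 uM final) for 24 h.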

Activity change, positive = activation, inactive:
O=C(C1CCCN(S(=O)(=O)c2cccc3nsnc23)C1)N1CCN(c2ccccc2Cl)CC1 (configuration not stated) -32.2%
CN(C)c1ccc(NC(=O)Cn2cc(S(=O)(=O)Cc3cccc(Cl)c3)c3ccccc32)cc1 -28.9%
Cc1nc2scc(C)n2c(=O)c1S(=O)(=O)N1CCN(c2cccc(C(F)(F)F)c2)CC1 -32.6%
O=C(CSc1nc(-c2cccs2)nc2cc(=O)[nH]n12)Nc1ccccc1F -17.7%
CCCOc1ccc(C(=O)Nc2ccc(Cl)c(-c3nc4ncccc4o3)c2)cc1 3.26%
CCOc1ccc(CCNC(=O)CSc2cc(=O)n(C)c3cc(Cl)ccc23)cc1OCC -22.1%
Cc1c(-c2nsc(NC(=O)c3cccc(Cl)c3)n2)nnn1-c1ccccc1C(F)(F)F -85.6%
CCOc1ccc(CCNC(=O)CCc2c(C)nc3cc(-c4ccccc4OC)nn3c2C)cc1 -81.2%
CSc1ccc(CCNC(=O)CN2C(=O)c3cccnc3Oc3ccc(Cl)cc32)cc1 -16.6%
COc1cc(C(=O)N2CCc3c([nH]c4ccccc34)C2c2ccc(C)cc2)cc(OC)c1OC (configuration not stated) -40.2%
Nc1c(-c2nc(-c3ccc4c(c3)OCO4)cs2)c2ccccn2c1C(=O)c1ccccc1 -1.49%
CCCCn1c(NCc2cc(Cl)ccc2O)nc2ccccc21 -36.7%
COc1ccc(CNCCC(c2ccccc2)c2ccc3c(c2)OCO3)cc1 (configuration not stated) -22.8%
CCCC1=Nc2cc(C(=O)NCCc3ccccc3)ccc2Sc2ccc(C)cc21 -42.6%
COc1ccccc1NC(=O)NCc1cccn1Cc1ccccc1 -7.96%
Cc1cc(Br)ccc1NC(=O)c1ccc(NS(=O)(=O)c2c(C)noc2C)cc1 -10.3%
COc1ccc(NC(=O)Cn2cnc3ccc(S(=O)(=O)N4CCC(C)CC4)cc3c2=O)cc1OC -28.8%
COc1cccc(-c2nc(SCC(=O)NC3CCCC3)c(-c3ccccc3)[nH]2)c1 -21.9%
CCOc1ccc(-c2nc(SCC(=O)NC3CCCC3)c(-c3ccccc3)[nH]2)cc1OC -10.5%
COc1ccc(-c2cnn3c(C)cc(C)nc23)cc1OC 4.1%
Cc1c(NC(=O)c2cccc3c(Cl)cccc23)cccc1-c1nc2ccccc2o1 -16%
O=C(CCS(=O)(=O)c1cc(Br)cc2c1N(C(=O)C1CC1)CC2)NCc1ccccc1Cl -9.49%
COC(=O)c1sccc1S(=O)(=O)N(CC(=O)Nc1c(C)cccc1C)c1ccc(C)c(C)c1 -24.7%
COc1ccc2c(c1)c(=O)c(S(=O)(=O)c1ccc(C)cc1)cn2Cc1ccccc1C -38.5%
CCOC(=O)N1CCc2c(sc3c2c(=O)n(Cc2ccccc2)c(=O)n3CC(=O)Nc2ccc(C)c(C)c2)C1 -15.3%
CCC(C(=O)Nc1cc(F)ccc1F)n1nc(-c2cc(C)ccc2C)ccc1=O (configuration not stated) -32.1%
Cc1ccc(NC(=O)CCC(=O)N2CCSc3ccccc32)cc1Cl -33%
Cc1c(Cl)cccc1NC(=O)Nc1nnc(N(C)Cc2ccccc2)s1 -22.3%
Cc1c(N(C)C)c(=O)n(-c2ccccc2)n1C 1.38%
Oc1c(Cl)cc(Cl)c(Cl)c1Cc1c(O)c(Cl)cc(Cl)c1Cl -93.1%
CC1=C(C(=O)NCc2ccccc2C)C2(CCCCC2)OC1=O -1.83%
Cc1c(NC(=O)C(C)(C)Oc2ccc(Cl)cc2)cccc1-c1nc2ncccc2o1 -48.3%
CC(=O)c1ccc(NC(=O)Cn2cc(S(=O)(=O)Cc3ccccc3Cl)c3ccccc32)cc1 -24.9%
CCC(C(=O)Nc1ccccc1OC)n1nc(C)c2sc3ccccc3c2c1=O (configuration not stated) -27.7%
Cc1ccc(C)c(OCC(=O)Nc2ccc(S(=O)(=O)Nc3onc(C)c3C)cc2)c1C -11.3%
Cc1ccc(NC(=O)c2c(C)oc3nc(C)nc(N4CCCC4)c23)c(C)c1 -12.6%
CCN(CCCNC(=O)CSc1cc(=O)n(CC)c2ccccc12)c1cccc(C)c1 -25.6%
CC(Sc1cn(CCNC(=O)c2ccccc2F)c2ccccc12)c1ccccc1 (configuration not stated) -33.8%
COc1ccc(NC(=O)c2c(NCc3sccc3C)sc3c2CCCCC3)c(OC)c1 -13%
CCOc1ccc(CCNC(=O)c2ccc(CS(=O)Cc3cccc(Cl)c3)o2)cc1 (configuration not stated) -18.8%
COc1ccc(C)cc1NC(=O)Cn1c(=O)ccc2cc(S(=O)(=O)N3CCC(C)CC3)ccc21 -37.3%
COC(=O)c1ccc(NC(=O)CSc2ncc3c(n2)-c2cc(Cl)ccc2N(Cc2ccccc2)S3(=O)=O)cc1 -12.3%
Cc1ccc2c(=O)c(C(=O)c3ccc(Cl)cc3)cn(CC(=O)NC3CCCCC3)c2n1 -3.86%
O=S(=O)(c1ccc(F)cc1)N(Cc1nc(-c2ccc(Cl)cc2)no1)C1CCCCC1 -26.7%
O=C(Nc1c(C(=O)O)oc2ccccc12)c1ccc(C(F)(F)F)cc1 25.6%
O=C(CSc1cn(CC(=O)N2CCOCC2)c2ccccc12)Nc1ccccc1 0.663%
O=C(COCc1cc(-c2ccc3c(c2)OCO3)on1)NCc1ccccc1Cl 11.8%
NC(=O)c1ccc2[nH]ccc2c1 -13.6%
COc1ccccc1OCC(=O)NCc1nc(-c2ccc(Cl)cc2)no1 -21.4%
CCOc1ccc(C(=O)Nc2ccc(S(=O)(=O)Nc3nc(C)cc(C)n3)cc2)cc1OC -9.23%
CC1=C(c2ccc(C)c(C)c2)S(=O)(=O)N(Cc2ccc(C(=O)NC(C)c3ccccc3)cc2)C1=O (configuration not stated) -19.1%
Cc1ccccc1Cc1c(C)nc2nc(SCC(=O)NCCc3ccc(Cl)cc3)nn2c1C 19.6%
O=C(COc1ccccc1)Nc1ccccc1OCc1cc(=O)n2ccccc2n1 2.06%
Cn1c(=O)c2c(nc(Oc3ccccc3)n2Cc2c(Cl)cccc2Cl)n(C)c1=O -5.22%
COc1ccc(N(CC(=O)Nc2cc(C)ccc2C)S(=O)(=O)c2ccc(OC)c(OC)c2)cc1 -35.4%
COCCCNC(=O)CSc1nc2cc3c(cc2c(=O)n1CCCC(=O)NCc1ccc(OC)cc1)OCO3 -12.7%
COc1cc(NC(=O)CSc2nc3nc(C)c(Cc4ccc(C)cc4)c(C)n3n2)cc(OC)c1OC -31.6%
O=C(Nc1ccc(F)cc1F)c1ccc2c(O)c(S(=O)(=O)c3ccc(Cl)cc3)c(=O)[nH]c2c1 -12.6%
CCOc1ccc(NC(=O)CN2C(=O)COc3ccc(S(=O)(=O)NC4CCCC4)cc32)cc1 -20.2%
CCc1ccc(C2c3c(oc4ccc(F)cc4c3=O)C(=O)N2c2nc(C)c(C(=O)OC)s2)cc1 (configuration not stated) -7.41%
Cc1c2cnn(CC(=O)NCCc3ccccc3)c(=O)c2c(C)n1Cc1ccccc1 -5.75%
COc1cc(NC(=O)CSc2ncc(S(=O)(=O)c3ccc(Br)cc3)c(=O)[nH]2)cc(OC)c1 -6.43%
Cc1cccc(NC(=O)C(=O)NCC(c2ccc3c(c2)OCO3)N2CCN(C)CC2)c1C (configuration not stated) -6.53%
COc1ccc(OC)c(NC(=O)c2cccn2-c2nnc(N3CCCCC3)s2)c1 2.13%
COc1ccc(CNC(=O)c2cc3c(=O)oc4ccc(C)cc4c3s2)c(OC)c1 -8.44%
Fc1ccc(-c2noc3ncnc(NC4CCCCC4)c23)cc1 -31.7%
CC[C@]1(O)C[C@H]2CN(CCc3c([nH]c4ccccc34)[C@@](C(=O)OC)(c3cc4c(cc3OC)N(C=O)[C@H]3[C@@](O)(C(=O)OC)[C@H](OC(C)=O)[C@]5(CC)C=CCN6CC[C@]43[C@@H]65)C2)C1
CCN(CC)S(=O)(=O)c1ccc2oc(C(=O)N(C)Cc3ccccc3)c(C)c2c1 -15.8%
CCCCOc1cccc(C(=O)N(Cc2sccc2C)C2CCS(=O)(=O)C2)c1 (configuration not stated) -37.4%
Cc1cc(Nc2cccc(Cl)c2)nc2ccc(NC(=O)Cc3cccc(C(F)(F)F)c3)cc12 -52.2%
COc1ccc(Cn2c(=O)c3oc4ccccc4c3n(Cc3ccc(F)cc3)c2=O)cc1 -3.02%
Cc1cccc(N2CCN(C(=O)CCCCn3c(=O)[nH]c4ccsc4c3=O)CC2)c1C -39.5%
COc1cc(C2CC(=O)Nc3cc4c(cc32)OCCO4)cc(Br)c1OC (configuration not stated) -45.2%
COc1ccc(CNC(=O)c2ccc(NC(=O)N3CCCCc4ccccc43)cc2)cc1 -27.7%
COc1ccc(CNC(=O)c2ccc(CS(=O)(=O)c3ccccc3OC)o2)cc1 -9.18%
CCN(CC)S(=O)(=O)c1ccc2c(c1)N(CC(=O)N1CCN(c3ccc(F)cc3)CC1)C(=O)CO2 -9.81%
Cc1ccc(C)c(-c2[nH]c3c(c2-c2c(-n4cccc4)n(C)c(=O)[nH]c2=O)c(=O)[nH]c(=O)n3C)c1 -5.44%
Cc1ccc(-c2nc(CCNC(=O)C(=O)Nc3ccc(C)cc3C)cs2)cc1 -7.06%
CCOc1ccc(CCNC(=O)Cn2nc(-c3ccc(C)cc3)ccc2=O)cc1OCC -13.1%
CCc1ccccc1NC(=O)C1=C(C)C(=O)OC12CCCCCC2 -20.1%
COc1cc(CN2CCN(S(=O)(=O)c3ccccc3)CC2)cc(OC)c1O 18.6%
O=C(CNS(=O)(=O)c1cccs1)N1CCN(c2cccc(C(F)(F)F)c2)CC1 -27%
CCc1ccc(-c2nc(CS(=O)CC(=O)NCCc3ccc(Cl)cc3)c(C)o2)cc1 (configuration not stated) -15.3%
O=C1CCSC2(C(=O)N(Cc3ccc(F)cc3)c3ccccc32)N1c1ccc(F)c(F)c1 (configuration not stated) -26%
CCNC(=O)CC1C(=O)N(c2cccc(OC)c2)C(=O)N1Cc1ccc(OC)c(OC)c1 (configuration not stated) -15.2%
CCOc1ccc2oc(=O)cc(CN3CCN(C(=O)c4ccc(F)cc4)CC3)c2c1 -26.5%
Cc1c(C(=O)Nc2cccc(Cl)c2)oc2ccc(S(=O)(=O)N(C)C3CCCCC3)cc12 -26.5%
COc1cccc(NC(=O)Cn2c(=O)n(-c3ccc(C)cc3)c(=O)c3ccc(C(=O)NCc4ccco4)cc32)c1 -14.9%
Cc1nc2ncnn2c(C)c1CCC(=O)NCc1ccccc1Cl -10.8%
CCOc1ccccc1N(CC(=O)N1CCc2ccccc2C1)S(=O)(=O)c1ccccc1 -21.1%
CCOCc1ccccc1Nc1ncnc2onc(-c3ccc(Cl)cc3)c12 -4.64%
CCc1cccc(NC(=O)C(c2ccccc2)N2Cc3ccccc3C2=O)c1 (configuration not stated) -23.9%
